Source: PubChem BioAssay AID485364 (National Center for Advancing Translational Sciences (NCATS), 2010)
Hit rate of the full screen: of about 360,000 compounds, about 11,000 (3.1%) were called active. The shares of active, inactive and inconclusive entries below differ from those in the screen. Calls come from the whole dose curve; as a rule, active = well fitted inhibition curve with a large enough effect; inconclusive = small, poorly fitted or top-dose-only effect; inactive = no such curve, though single readings can be large or run the other way. No potency is given beside an inconclusive call; the fits are too rough.

Molecular target: Schistosoma mansoni thioredoxin glutathione reductase (TGR) (UniProt Q962Y6)
Assay: qHTS Assay for the Inhibitors of Schistosoma Mansoni Peroxiredoxins; note: nearly all actives have a fitted effect of over 60% in size
Details: purified TGR, DTNB reduction, TNB absorbance 405 nm; series mostly up to 114 µM
Summary of the method: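 First, TGR (20 nM dispensed) and NADPH were mixed with compound. Second, a 15 min room-temperature incubation followed. Third, further NADPH and then DTNB were added to start the reaction. Finally, TNB absorbance was monitored kinetically.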
Potency is the fitted concentration of half-maximal effect; tags give direction and shape of the fitted curve.

Structure (SMILES)	Potency
Cc1cccc(NNC(=O)C2CCC2)c1	inconclusive [inhibitor, single point]
CCSc1nc2sc3c(c2c(=O)n1-c1ccc(C)c(Cl)c1)CCN(C(C)=O)C3	inconclusive [inhibitor, single point]
CN(Cc1ccco1)C(=O)Cn1nc(-c2ccc(Cl)cc2)ccc1=O	inconclusive [inhibitor, single point]
Cc1ccc(-c2nc(-c3ccccn3)sc2CC(=O)O)cc1	inconclusive [inhibitor, partial curve]
COc1ccc(N/N=C(C)/C(=N/O)C(=O)Nc2ccccc2)cc1	inconclusive [inhibitor, partial curve]
O=C1CC(CC(=O)N/N=C/c2ccccc2[N+](=O)[O-])=NN1	inactive
CC(C)(C)c1ccccc1OCCCCN1CCCC1	inconclusive [inhibitor, single point]
Cc1ccc(C)c(NC(=O)CSc2nnc([C@@H](N)Cc3c[nH]c4ccccc34)o2)c1	inconclusive [inhibitor, full curve, poor fit]
O=[N+]([O-])c1ccc(Sc2cc[n+]([O-])c3ccccc23)c([N+](=O)[O-])c1	active: 7.94 µM
Cc1occc1-c1nnc(SCC(=O)NC2CCC(C)CC2)o1 (centres undefined)	inactive
Cc1ccc(/C=N/NC(=S)Nc2cccc(S(=O)(=O)N(C)C)c2)o1	inconclusive [inhibitor, partial curve]
CC(C)c1ccc(C2NC(=O)NC3=C2CCc2ccccc23)cc1 (centres undefined)	inconclusive [inhibitor, partial curve]
COCCN(CC1CCCN(C2Cc3ccccc3C2)C1)C(=O)c1cccs1 (centres undefined)	inconclusive [inhibitor, full curve]
O=C(O)c1cccnc1SC1CC(=O)N(c2cccc(C(F)(F)F)c2)C1=O (centres undefined)	inconclusive [inhibitor, partial curve]
O=C(/C=C/C=C/c1ccccc1)c1ccco1	active: 10 µM
Cc1cc(Br)ccc1SCC(=O)OCC(=O)NC1CC1	inconclusive [inhibitor, single point]
COc1ccccc1NC(=O)c1nn(-c2ccccc2)ccc1=O	inactive
COc1ccc(S(=O)(=O)Nc2ccccc2C(=O)NC(C)C)cc1OC	inconclusive [inhibitor, full curve, poor fit]
CC(=O)N1CCc2c(sc(NC(=O)CSc3ccc(F)cc3)c2-c2nc3ccccc3s2)C1	inactive
COC(=O)c1cccc(C23CC4(C2)[C@H](CN(CC2CCCCC2)[C@@H]4c2ccccc2)C3c2ccccc2)c1 (some centres undefined)	inconclusive [inhibitor, partial curve]
Cc1ccc(Cn2c(CO)cnc2SCC(=O)Nc2cccc(F)c2)cc1	inconclusive [inhibitor, single point]
COCCCNC(=O)c1ccc2c(=O)n(Cc3ccc4c(c3)OCO4)c(=S)[nH]c2c1	inconclusive [inhibitor, full curve, poor fit]

Structure (SMILES)	Potency
O=C(O)CCNS(=O)(=O)c1ccccc1C(F)(F)F	inactive
OC(CNCc1ccccc1)COc1ccccc1 (centres undefined)	inconclusive [inhibitor, partial curve]
C=CCc1cc(/C=N/NC(=O)CSc2nnc(CCCc3ccc(OC)cc3)o2)cc(OC)c1O	inactive
O=C1Nc2ccc(F)cc2C12SCCS2	inconclusive [inhibitor, full curve, poor fit]
Cc1cccnc1NC(=O)CNC(=O)c1ccccc1	inactive
CCOC(=O)N1C=CC=C[C@@H]2[C@@H](N3C(=O)c4ccccc4C3=O)C(=O)N21	inconclusive [inhibitor, partial curve]
O=C(NC(=S)NCc1nc2ccccc2[nH]1)c1ccc(F)cc1	inconclusive [inhibitor, partial curve]
CCOc1ccc(NC(=O)Cn2c(=O)n(-c3ccccc3)c(=O)c3c4c(sc32)CCCC4)cc1	inactive
CCc1ccc(CN2CCC(C(=O)Nc3cccc(-c4nnc(C)s4)c3)CC2)o1	inconclusive [inhibitor, partial curve]
Cc1ccc(-n2cc(CNC(C)c3cnn(C)c3)c(-c3ccc(F)cc3)n2)cc1 (centres undefined)	inconclusive [inhibitor, single point]
COc1ccnc(Nc2ccc(C)c(C)c2)c1C#N	inactive
COc1ccc(OC)c(C(=O)NC(CC(N)=O)c2ccc(N3CCC(Cc4ccccc4)CC3)c([N+](=O)[O-])c2)c1 (centres undefined)	inactive
COC(=O)C1=C(C)NC2=C(C(=O)CCC2)C1c1ccc(-c2ccsc2C(=O)OC)o1 (centres undefined)	inconclusive [inhibitor, single point]
CN1CCc2nc(SCc3cccc(Br)c3)c(C#N)cc2C1	inconclusive [inhibitor, full curve]
CCn1c(C)cs/c1=N\S(=O)(=O)c1ccccc1	inactive
COc1cc(/C=N/NC(=O)c2ccc3c(c2)OCCO3)c(Br)c(Br)c1O	inconclusive [inhibitor, single point]
CCOC(=O)c1c(C)[nH]c(C(=O)COC(=O)C2CC(=O)N(Cc3ccccc3)C2)c1C (centres undefined)	inconclusive [inhibitor, partial curve]
COc1cc(C(=O)ON=C2C(C)=CC(=O)C=C2C)cc(OC)c1OC	inconclusive [inhibitor, partial curve, poor fit]
O=C(c1ccccc1-c1ccccc1)N1CCN(c2ccccn2)CC1	inactive
CCOC(=O)C1CCCN(C(=O)c2cc(COc3ccc(C)nc3)on2)C1 (centres undefined)	inconclusive [inhibitor, partial curve]
CCOC(=O)C1=C(O)/C(=C/c2ccc(-c3ccccc3C(=O)O)o2)SC1=Nc1ccc(OC)cc1	inconclusive [inhibitor, partial curve]
CN(CC(=O)Nc1ccc(Cl)cc1F)S(=O)(=O)c1ccc2c(c1)n(C)c(=O)c(=O)n2C	inactive
